In all, about 310,000 compounds went through this assay and about 18,000 (5.8%) were called active. This list was built around the results that the source calls inconclusive (neither active nor inactive); the mix of calls is not that of the screen. Calls follow the shape of the dose curve; as a rule, active = well fitted inhibition curve with a large enough effect; inconclusive = small, poorly fitted or top-dose-only effect, or another doubt; inactive = no such curve, though single readings can be large or run the other way. No potency is given beside an inconclusive call; the fits are too rough.
Assay: Primary qHTS for delayed death inhibitors of the malarial parasite plastid, 48 hour incubation
Conditions: P. falciparum luciferase growth in erythrocytes; series mostly up to 28.7 µM; activity change, negative = inhibition: at the top concentration
Outline: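 Compounds are pin-transferred into medium, infected erythrocytes (2% hematocrit, 0.1% parasitemia final) are added, and plates sit one parasite generation at 37 C in 5% CO2. Detection reagent is then added and luminescence measured.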
% is scaled to controls: 0 for no effect and ±100 for the full control effect; potency is read from the fitted curve at half-maximal effect; tags tell the direction and shape of the fitted curve.

With `Nc1c(S(=O)(=O)c2cccs2)c2nc3ccccc3nc2n1/N=C/c1cccc(O)c1` as the compound, how does the Potency read?
Its Potency is inconclusive [inhibitor, single point].

Which Potency does the source give for `O=C(O)/C=C/C(=O)Nc1ccc(Cl)cc1C(=O)c1ccccc1` here?
Its Potency is inconclusive [inhibitor, partial curve, poor fit].

With `CCOC(=O)c1ccc(Cn2c(-c3ccccc3)nnc2-c2ccccc2)o1` as the compound, how does the Potency read?
Its Potency is inconclusive [inhibitor, single point].

For `CCN(CC)CCNCc1nc2ccccc2c(=O)n1-c1ccc(F)cc1`, which “activity change, negative = inhibition” value is on record?
The value was inactive: 13.3%.

With `O=C(Nc1ccccc1N1CCCC1)C1=COCCO1` as the compound, how does the Potency read?
Its Potency is inconclusive [inhibitor, partial curve, poor fit].

For `O=C(CN(c1cccc(C(F)(F)F)c1)S(=O)(=O)c1ccc(Cl)c([N+](=O)[O-])c1)NCc1ccc(F)cc1`, which Potency is on record?
The Potency was inconclusive [inhibitor, single point].

Which Potency does the source give for `COC(=O)C1=C(c2ccccc2OCc2ccccc2)C[C@@H]2CC[C@H]1N2C(=O)NCCOc1ccc(OC)cc1` here?
Its Potency is active: 9.28 µM.

With `Cc1ccc(S(=O)(=O)N2CCCCC2)cc1NC(=O)c1ccc2c(=O)n3c(nc2c1)CCCCC3` as the compound, how does the “activity change, negative = inhibition” value read?
The value was inactive: -14.4%.

For `O=[N+]([O-])c1ccc(Cl)c(S(=O)(=O)n2ccnc2)c1`, which Potency is on record?
Its Potency is active: 2.94 µM.

With `CN(C)CCCN(C(=O)c1ccco1)c1nc2ccc(Br)cc2s1` as the compound, how does the Potency read?
Its Potency is inconclusive [inhibitor, single point].

With `O=C(Cc1cccs1)Nc1ccc(S(=O)(=O)N2CCCCC2)cc1` as the compound, how does the Potency read?
Its Potency is inconclusive [inhibitor, single point].

For `COc1cccc(NC(=O)CN2C(=O)COc3ccc(S(=O)(=O)N4CCCCCC4)cc32)c1`, which Potency is on record?
Its Potency is inconclusive [inhibitor, single point].

With `Cc1cccc(-n2c(C)n[nH]c2=S)c1` as the compound, how does the “activity change, negative = inhibition” value read?
The value was inactive: 9.31%.

With `CCc1ccc(NC(=O)CC2C(=O)N(c3ccc(C)cc3)C(=O)N2CCc2ccncc2)cc1` (configuration not stated) as the compound, how does the Potency read?
The Potency was active: 14.7 µM.

For `O=C(NCc1cccnc1)C(=O)C1C(=O)Nc2ccccc21` (configuration not stated), which “activity change, negative = inhibition” value is on record?
The value was inactive: 12.2%.

Which “activity change, negative = inhibition” value does the source give for `COc1cc(C(=O)NCC(=O)N/N=C/c2ccc(OC(=O)c3ccco3)cc2)cc(OC)c1OC` here?
Its value is inactive: -2.95%.

Which Potency does the source give for `COc1ccc(COC(=O)c2cccc(S(=O)(=O)N3CCN(C(C)=O)CC3)c2)cc1F` here?
The Potency was inconclusive [inhibitor, full curve, poor fit].

With `Cc1sc2c(c1C)CN(CCN1CCOCC1)CN2C(=O)c1ccccc1` as the compound, how does the “activity change, negative = inhibition” value read?
The value was inactive: 37.3%.

For `CCn1c(=O)c(=O)n(CC)c2cc(S(=O)(=O)Nc3cc(C)ccc3C)ccc21`, which “activity change, negative = inhibition” value is on record?
The value was inactive: -6.16%.

With `CCCCn1c(N)c(N(CC(C)C)C(=O)C2CCN(S(=O)(=O)c3ccc(F)cc3)CC2)c(=O)[nH]c1=O` as the compound, how does the Potency read?
The Potency was inconclusive [inhibitor, single point].

Which Potency does the source give for `O=C(C1CCCN(S(=O)(=O)c2cccc3nsnc23)C1)N1CCc2ccccc2C1` (configuration not stated) here?
The Potency was inconclusive [inhibitor, partial curve, poor fit].

Which Potency does the source give for `CC1CCC(NC(=O)CCn2ccc3cc(S(=O)(=O)N4CCCC4)ccc32)CC1` (configuration not stated) here?
Its Potency is inconclusive [inhibitor, single point].

With `COc1ccccc1NS(=O)(=O)c1ccc(C)c(C(=O)NCC(c2ccco2)N(C)C)c1` (configuration not stated) as the compound, how does the Potency read?
The Potency was inconclusive [inhibitor, single point].

With `COc1cc(C2=NOC(C(=O)N3CCN(c4ccc(F)cc4)CC3)C2)cc(OC)c1OC` (configuration not stated) as the compound, how does the Potency read?
The Potency was inconclusive [inhibitor, partial curve].

Which Potency does the source give for `COc1ccc(CCN(C)Cc2ccc(OC)c(OCc3ccccc3)c2)cc1OC` here?
The Potency was inconclusive [inhibitor, partial curve].

Which Potency does the source give for `CCC(C(=O)NCCC1=CCCCC1)n1nc(C)c2c(C)n(-c3ccccc3)nc2c1=O` (configuration not stated) here?
Its Potency is inconclusive [inhibitor, single point].

Which Potency does the source give for `CC(=O)c1ccc(NC(=O)C2CCCN(S(=O)(=O)c3ccc(-n4cnnn4)cc3)C2)cc1` (configuration not stated) here?
Its Potency is inconclusive [inhibitor, partial curve, poor fit].

With `CC(=O)N1CCN(S(=O)(=O)c2cccc(C(=O)Nc3ccc4c(c3)CCC4)c2)CC1` as the compound, how does the Potency read?
The Potency was inconclusive [inhibitor, single point].

Which “activity change, negative = inhibition” value does the source give for `CC(=O)Nc1ccc(S(=O)(=O)Nc2nc3ccccc3s2)cc1` here?
The value was inactive: 9.78%.

For `Cc1cc(OCC(=O)NCc2ccccn2)c2c(C)c(Cc3ccccc3)c(=O)oc2c1`, which Potency is on record?
The Potency was inconclusive [inhibitor, partial curve].

Which Potency does the source give for `COc1ccc2nc(NC(=O)C(NS(=O)(=O)c3cccs3)C(C)C)sc2c1` (configuration not stated) here?
Its Potency is inconclusive [inhibitor, single point].

Which Potency does the source give for `Cn1c(COc2ccc(Cl)cc2)nnc1SCc1ncc(-c2ccccc2)o1` here?
The Potency was inconclusive [inhibitor, single point].

With `Cc1ccc(NC(=O)CNc2ccc(Cl)cc2F)cc1` as the compound, how does the “activity change, negative = inhibition” value read?
The value was inactive: 6.14%.

For `COc1cccc(-c2noc(CCCC(=O)Nc3ccc(C(N)=O)cc3)n2)c1`, which “activity change, negative = inhibition” value is on record?
The value was inactive: 36.6%.

With `O=C(CN1CCN(c2ccc(O)cc2)CC1)Nc1cc(S(=O)(=O)N2CCCC2)ccc1Cl` as the compound, how does the Potency read?
The Potency was active: 9.28 µM.

With `C/C=C/c1ccc(OCCCN2C(=O)NC(C)(C)C2=O)c(OC)c1` as the compound, how does the “activity change, negative = inhibition” value read?
The value was inactive: -8.75%.

Which Potency does the source give for `CC(C)(C)OC(=O)NOCC(=O)N(Cc1ccccc1)CC(O)COc1ccccc1` (configuration not stated) here?
The Potency was inconclusive [inhibitor, single point].

Which Potency does the source give for `COC(=O)COc1cc(Br)c(/C=C2/SC(=O)N(CC(=O)N3CCCC3)C2=O)cc1OC` here?
Its Potency is inconclusive [inhibitor].

Which Potency does the source give for `COc1ccc(C)cc1NS(=O)(=O)c1ccc(NC(=O)CN(c2cc([N+](=O)[O-])ccc2C)S(C)(=O)=O)cc1` here?
Its Potency is inconclusive [inhibitor, single point].

For `CC1(C)CC(=O)c2cnc(N3CCc4ccccc43)nc2C1`, which “activity change, negative = inhibition” value is on record?
The value was inactive: 189%.

For `Cc1ccc(C(O)c2ccc(-n3ccnc3)cc2)cc1` (configuration not stated), which Potency is on record?
Its Potency is inconclusive [inhibitor, partial curve, poor fit].

For `Cc1cc(-c2ccccc2)nc(SCC(=O)c2cccc([N+](=O)[O-])c2)n1`, which Potency is on record?
The Potency was inconclusive [inhibitor, partial curve, poor fit].
